Measurements taken from patent US11178870B2 (priority 2017, dated 2021).

How the values were obtained:
Phytophthora infestans = format: in vivo; details: Table 7, Test F
[1] = system: Colletotrichum orbiculare; details: 250 ppm sprayed (2.5 ml/pot) before inoculation; assessed 6 to 10 days after inoculation
Magnaporthe grisea = format: in vivo; details: Table 7, Test A

Row | Compound | control value, Test F (late blight on tomato) (Phytophthora infestans) | control value, Test H (anthracnose on cucumber) [1] | control value, Test A (blast on rice) (Magnaporthe grisea)
1 | CCn1c(-c2ccccc2Br)c(-n2cc(F)cn2)cc(Br)c1=O [Compound 358] | L (L shows the control value of 50% or less) | H (H shows the control value more than 50%) | –
2 | CCn1c(-c2ccc(F)cc2C)c(-n2cc(C)cn2)ccc1=O [Compound 367] | L (L shows the control value of 50% or less) | – | L (L shows the control value of 50% or less)
